Measurements as given in publication PMC8754660 (Nucleic Acids Research, 2021).

Tests used:
[1] = biological target: GST-fusion human Hira truncation mutant 1-481 aa (human, UniProt P54198 partial chain); assay: pull-down
[2] = biological target: GST-fusion full-length human Hira subunit (human, UniProt P54198 1-1017); assay: pull-down

B1: His-tag human Asf1a […] aa (domain or fragment)
chain: not shown
binding result [1]: binds | binding result [2]: binds
